“And” between values parts separate entries of the source, which are not always exact repeats. Equal entries are not always repeated. About 6,400 (1.6%) of roughly 410,000 compounds were called active. The inconclusive results got no clear call from the source; some entries with a clear call stand among them for comparison. The call rests on the fitted dose curve; in most records, active means well fitted inhibition curve with a large enough effect; inconclusive means small, poorly fitted or top-dose-only effect; inactive means no such curve, though single readings can be large or run the other way. Potencies of inconclusive entries are doubtful fits and often do not repeat.
These compounds were tested against Glucagon-like peptide 1 receptor (Homo sapiens) (UniProt P43220) (assay: qHTS of GLP-1 Receptor Inverse Agonists (Inhibition Mode)). Details: HEK293 GLP-1R CRE-luciferase, luminescence, 24 h, GLP-1R form is constitutively active; series mostly up to 38.3 µM.
Sequence of UniProt P43220 (P43220 whole entry, looked up): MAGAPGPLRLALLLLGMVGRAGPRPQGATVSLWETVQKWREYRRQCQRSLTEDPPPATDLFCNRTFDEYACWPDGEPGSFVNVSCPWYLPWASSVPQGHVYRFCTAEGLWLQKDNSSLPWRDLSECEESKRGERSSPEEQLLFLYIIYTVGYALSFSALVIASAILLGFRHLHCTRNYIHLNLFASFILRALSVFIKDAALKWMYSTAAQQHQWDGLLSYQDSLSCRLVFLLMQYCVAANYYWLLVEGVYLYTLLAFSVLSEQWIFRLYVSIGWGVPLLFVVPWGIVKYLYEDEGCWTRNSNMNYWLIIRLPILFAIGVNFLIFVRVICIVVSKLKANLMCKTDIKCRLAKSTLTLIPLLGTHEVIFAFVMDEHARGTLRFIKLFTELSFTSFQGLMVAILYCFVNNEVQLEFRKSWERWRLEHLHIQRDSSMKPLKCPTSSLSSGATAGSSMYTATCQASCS
How it was run: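 Cells are plated, allowed 12 hours at 37 deg C, then treated with compounds for 24 hr before luciferase detection reagent is added and luminescence is read after 12 min at room temperature. The HEK293 line carries constitutively active GLP-1R with a cAMP-responsive reporter.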
Further: nearly all actives have a fitted effect of over 55% in size.
Potency means the concentration at half of the fitted maximal effect; tags describe the fitted curve by direction and shape.

SMILES | Potency
CCc1ccc(NC(=O)N(CCN2CCOCC2)Cc2ccc3c(c2)CCCN3CC)cc1 | inconclusive: 28.2 µM [inhibitor, single point]
Cc1ccc(/C=C/C(=O)Nc2ccc(Oc3ccccc3)cc2)o1 | inconclusive: 3.16 µM [inhibitor, full curve]
COc1cc(C(=O)Nc2ccc3c(c2)N(C(=O)CCN(C)C)c2ccccc2CC3)cc(OC)c1OC | inconclusive: 8.91 µM [inhibitor, partial curve, poor fit]
Cc1cc(=O)n(CC(=O)NC(C)c2ccccc2)c2c1c(C)nn2-c1cccc(F)c1 (stereo not given) | inactive
CC(=O)N1CCN(c2ccc(S(=O)(=O)NCCN(C(C)C)C(C)C)cc2[N+](=O)[O-])CC1 | inconclusive: 28.2 µM [inhibitor, single point]
Cc1cccc(Nc2nnc(SCC3CCCCO3)s2)c1C (stereo not given) | inconclusive: 28.2 µM [inhibitor, single point]
CCOC(=O)C1=C(C)N(CC)C(=S)NC1c1ccc(Cl)cc1 (stereo not given) | active: 10 µM
Cc1ccc(O)c(C(=O)C=Cc2ccccc2)c1 | inconclusive: 10 µM [inhibitor, single point]
O=C(NC1CC1)C1=C[C@H](c2ccc(C(F)(F)F)cc2)C[C@H](OCc2ccc(CO)cc2)O1 | inconclusive: 11.2 µM [inhibitor, single point]
Cc1cc2nc(-c3ccccc3)cc(=O)n2[nH]1 | inactive
COc1cccc(/C=C/C(=O)OCC(=O)Nc2ccccc2Sc2ccccc2)c1 | inconclusive: 28.2 µM [inhibitor, single point]
O=C(CCCN1C(=O)c2cccc3cccc(c23)C1=O)N1CCN(c2ccccc2O)CC1 | inconclusive: 28.2 µM [inhibitor, single point]
Cc1ccc(-n2nnnc2SCC(=O)NC2CCCc3ccccc32)c(C)c1 (stereo not given) | active: 10 µM
O=C(CNC(=O)c1ccc2c(c1)OCO2)Nc1cccc(Br)c1 | inconclusive: 7.94 µM [inhibitor, single point]
COc1ccccc1C(=O)NCCC(=O)NNC(=O)c1ccccc1O | inactive
CN1C(=S)SC(C)(C)C1N(O)C(=O)Nc1ccc(Cl)cc1 (stereo not given) | inconclusive: 28.2 µM [inhibitor, single point]
O=C(c1cc(C2CC2)nn1-c1ccccc1)N1CCN(S(=O)(=O)c2cccc(F)c2)CC1 | inconclusive: 7.94 µM [inhibitor, partial curve, poor fit]
COc1cc(/C=N/OCC(=O)NC2CCCCC2)ccc1OCc1ccccc1 | inconclusive: 28.2 µM [inhibitor, single point]
CCC(C(=O)NC1CCCCC1)n1c(SCc2cccc(C)c2)nc2ccncc21 (stereo not given) | inconclusive: 14.1 µM [inhibitor, partial curve, poor fit] and inconclusive: 11.2 µM [inhibitor, single point]
CC(C)(C)c1ccc(C(=O)N2CCN(Cc3ccccc3)CC2)cc1 | inconclusive: 10 µM [inhibitor, partial curve, poor fit]
CCN(CC)CCNC(=O)c1cn(CC)c2ccc(S(=O)(=O)N(C)C3CCCCC3)cc2c1=O | inconclusive: 6.31 µM [inhibitor, partial curve, poor fit]
O=C(CN1CCN(c2ccc(F)cc2)CC1)NCc1ccc(Cl)cc1 | inconclusive: 12.6 µM [inhibitor, single point]

SMILES | Potency
Cc1ccc(C)c(NC(=S)N2CCC(c3nc4ccccc4s3)CC2)c1 | inconclusive: 28.2 µM [inhibitor, single point]
COc1ccccc1CCn1cnc(-c2ccc(Br)cc2)c1C(C)C | inconclusive: 20 µM [inhibitor, single point]
CC(C)(c1ccc(O)c([N+](=O)[O-])c1)c1ccc(O)c([N+](=O)[O-])c1 | inactive
CCOC(=O)c1nn(-c2cccc(OC)c2)c(-c2ccccc2)c1C(=O)c1ccccc1 | active: 5.62 µM
COc1ccc(C)cc1NCc1ccc(OC)c(C)c1OC | inconclusive: 12.6 µM [inhibitor, partial curve, poor fit]
O=C(Cc1ccc(Br)cc1)NCCc1ccc(Cl)cc1Cl | inconclusive: 8.91 µM [inhibitor, partial curve, poor fit]
Cc1c(C#N)c2ccccc2n1CCOc1ccccc1F | inconclusive: 11.2 µM [inhibitor, partial curve, poor fit]
COC(=O)c1ccc(-n2nnnc2SCc2ccccc2OC)cc1 | inconclusive: 10 µM [inhibitor, single point]
CN(CCOc1ccccc1)CC(=O)Nc1cccc(Br)c1 | inconclusive: 28.2 µM [inhibitor, single point]
COc1ccc(CC(=O)Nc2cc(S(=O)(=O)N3CCCCC3)ccc2C)cc1OC | inactive
CS(=O)(=O)N(CCc1ccccc1)CC(=O)N1CCc2ccccc2C1 | inconclusive: 3.55 µM [inhibitor, partial curve, poor fit]
C=CC[C@@H](CC(=O)N(CCO)Cc1ccccc1)C(=O)N[C@H](COC(=O)[C@@H](CC=C)CC(=O)OC(C)(C)C)c1ccccc1 | inconclusive: 28.2 µM [inhibitor, single point]
COc1ccc(CN(Cc2ccc(OC)cc2)C(=O)c2cccs2)cc1 | inconclusive: 10 µM [inhibitor, partial curve, poor fit]
CCN(CC)S(=O)(=O)c1cccc(NC(=O)C2SC(=Nc3ccc(C)cc3C)C(C(=O)NCC3CCCO3)=C2N)c1 (stereo not given) | inconclusive: 28.2 µM [inhibitor, single point]
C(=N\NC1=Nc2cccc3cccc1c23)/c1ccccc1 | inactive
CCOC(=O)c1cccc(NC(=O)CCc2nnc3ccc(N4CCN(C)CC4)nn23)c1 | inactive
O=C1NC(=Nc2ccccc2)S/C1=C\C=C\c1ccco1 | inactive
Cc1cccc(N2CCN(c3ncnc4c3nc3n4CCCCC3)CC2C)c1 (stereo not given) | inconclusive: 1.58 µM [inhibitor, partial curve, poor fit]
COc1ccc(CCNc2nc3cc(OC)c(OC)cc3c3nc(-c4ccccc4)nn23)cc1OC | inactive
NC(=O)c1nsc(C(=O)N(c2ccc(Cl)cc2)C(C(=O)NCC2CCCO2)c2cccs2)c1N (stereo not given) | inconclusive: 7.94 µM [inhibitor, partial curve, poor fit]
CC1=CC(C)(C)Nc2ccc(OC(=O)c3cccnc3)cc21 | inconclusive: 22.4 µM [inhibitor, single point]
COc1ccccc1CNC(=O)c1c(-c2ccccc2Cl)noc1C | inconclusive: 7.94 µM [inhibitor, partial curve, poor fit]

SMILES | Potency
CCn1cc(-c2cc(C(=O)O)c3ccccc3n2)cn1 | inconclusive: 20 µM [inhibitor, single point]
CC1(C(=O)NS(=O)(=O)c2ccccc2)CCN1C(=O)CC1CCCCC1 (stereo not given) | inconclusive: 5.62 µM [inhibitor, partial curve]
COCCNC(=O)c1cccc(OC2CCN(Cc3cccc(SC)c3)CC2)c1 | inconclusive: 10 µM [inhibitor, partial curve, poor fit]
CC(C)(C)N(NC(=O)Nc1ccc(Cl)cc1)C(=O)c1ccccc1 | inconclusive: 10 µM [inhibitor, single point]
CCOc1ccc(C(C(=O)NC2CCCC2)N(C(=O)c2snc(C(N)=O)c2N)C2CCCC2)cc1 (stereo not given) | inconclusive: 14.1 µM [inhibitor, partial curve, poor fit]
CCOC(=O)c1c(NC(=O)/C=C/c2ccc(C)cc2)sc(C(C)=O)c1C | inactive
N/C(=C/C(=O)c1ccccc1O)C(F)(F)F | inactive
Cc1cc(N2CCCCC2)nc(NCc2ccccc2)n1 | inconclusive: 5.62 µM [inhibitor, partial curve, poor fit]
CC(=O)Nc1nonc1-c1nnc(SCC(=O)Nc2cc(Cl)ccc2C)n1C | inactive
COc1cc(C(CC(=O)Nc2cccc(C(C)=O)c2)N2Cc3ccccc3C2=O)cc(OC)c1OC (stereo not given) | inactive
O=C(CSc1n[nH]c(=O)[nH]c1=O)Nc1cccc(S(=O)(=O)N2CCOCC2)c1 | inactive
COc1cccc(C2C=C(c3ccccc3)Nc3c(C(=O)Nc4ccccc4)cnn32)c1OC (stereo not given) | inconclusive: 14.1 µM [inhibitor, single point]
Cn1c(SCc2ccc(F)cc2)nnc1-c1cnccn1 | inactive
CCN1CCN(C(c2cccs2)C(C)NC(=S)Nc2cc(C)ccc2C)CC1 (stereo not given) | inconclusive: 7.08 µM [inhibitor, partial curve, poor fit]
CCOc1ccccc1NC(=O)c1cccc(NC(=O)c2ccco2)c1 | inconclusive: 2.24 µM [inhibitor, full curve]
CCOC(=O)c1sc(NC(=O)Cn2nnc3sc4c(c3c2=O)CCCC4)nc1C | inactive
Cc1ccc(NC(=O)CNc2ccc(Cl)c(Cl)c2)cc1S(=O)(=O)N(C)C | inconclusive: 10 µM [inhibitor, partial curve, poor fit]
CCN(C(=O)COc1ccc(C(=O)c2ccccc2)cc1)c1ccccc1 | inconclusive: 7.08 µM [inhibitor, partial curve, poor fit]
CC(=O)C1=C(c2ccc(Cl)c(Cl)c2)N(C(C)=O)n2c(nnc2-c2ccccc2)S1 | inactive
COc1ccc2sc(-c3ccccc3OC)c(-c3ccc(SC)cc3)c2c1 | inconclusive: 10 µM [inhibitor, partial curve, poor fit]
Cc1ccc(NC(=S)NC(=O)c2ccc(Br)o2)c(C)c1 | inactive

Source: PubChem BioAssay AID624417 (National Center for Advancing Translational Sciences (NCATS), 2012)
